These are yes or no findings as the source states them, for the method shown. For part of these data: In cells and extracts the contact can be indirect. Some binding calls cover weakened binding; strength is not graded here. For part of these data: Where a sequence is shown, tags or fusion partners need not be part of it.
T1: TBP-C (TBP_(CORE) clone, amino acids 134-316), Gal4 DNA-binding domain bait (mouse) (UniProt P29037)
T1 sequence: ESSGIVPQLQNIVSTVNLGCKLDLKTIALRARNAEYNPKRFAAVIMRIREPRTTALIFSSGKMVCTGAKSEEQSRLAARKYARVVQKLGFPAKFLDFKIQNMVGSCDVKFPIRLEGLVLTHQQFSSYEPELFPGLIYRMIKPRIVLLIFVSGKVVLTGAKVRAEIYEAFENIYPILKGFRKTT

T2: TBP-N (TBP N terminus clone, amino acids 1-136), Gal4 DNA-binding domain bait (mouse) (UniProt P29037)
T2 sequence: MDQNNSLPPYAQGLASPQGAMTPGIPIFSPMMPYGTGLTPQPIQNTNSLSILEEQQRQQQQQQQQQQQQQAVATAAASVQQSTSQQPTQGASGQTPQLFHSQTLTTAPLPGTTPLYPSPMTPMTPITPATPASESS

T3: HA-tagged full-length mouse TBP (pCMV-HA-TBP-FL) (mouse) (UniProt P29037)
T3 sequence: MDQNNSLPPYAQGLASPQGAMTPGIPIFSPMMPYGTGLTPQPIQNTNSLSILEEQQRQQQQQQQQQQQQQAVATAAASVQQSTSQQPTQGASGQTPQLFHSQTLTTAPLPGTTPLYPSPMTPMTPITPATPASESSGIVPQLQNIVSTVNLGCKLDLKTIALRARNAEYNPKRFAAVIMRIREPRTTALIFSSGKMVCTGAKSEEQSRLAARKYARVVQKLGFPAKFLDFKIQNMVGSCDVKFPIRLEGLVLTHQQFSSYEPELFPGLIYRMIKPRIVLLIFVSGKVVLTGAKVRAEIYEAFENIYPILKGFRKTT

T4: FLAG-tagged GFP-TBP fusion protein (pFLAG-CMV-GFP-TBP-FL) (mouse) (UniProt P29037)
T4 sequence: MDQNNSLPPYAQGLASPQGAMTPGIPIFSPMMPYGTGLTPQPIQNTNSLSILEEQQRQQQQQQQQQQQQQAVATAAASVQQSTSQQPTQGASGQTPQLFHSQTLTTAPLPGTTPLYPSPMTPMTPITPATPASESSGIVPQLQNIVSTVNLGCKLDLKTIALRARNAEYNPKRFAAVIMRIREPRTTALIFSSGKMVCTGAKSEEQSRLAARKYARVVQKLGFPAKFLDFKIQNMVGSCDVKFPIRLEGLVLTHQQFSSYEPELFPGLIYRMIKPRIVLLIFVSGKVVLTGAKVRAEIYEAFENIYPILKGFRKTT

T5: TBP-FL (full-length mouse TATA-binding protein), Gal4 DNA-binding domain bait (mouse) (UniProt P29037)
T5 sequence: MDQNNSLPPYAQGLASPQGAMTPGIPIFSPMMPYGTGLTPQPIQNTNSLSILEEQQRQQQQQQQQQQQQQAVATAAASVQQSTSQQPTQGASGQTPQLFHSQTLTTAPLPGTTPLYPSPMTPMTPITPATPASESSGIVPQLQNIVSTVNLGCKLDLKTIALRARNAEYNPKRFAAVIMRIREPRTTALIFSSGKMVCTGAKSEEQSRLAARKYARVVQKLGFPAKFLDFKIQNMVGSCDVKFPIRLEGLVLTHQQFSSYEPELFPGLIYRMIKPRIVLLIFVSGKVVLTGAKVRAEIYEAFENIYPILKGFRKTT

B1: HAP1 amino acids 157–261, Gal4 activation domain prey (domain or fragment, UniProt O35668 157-261)
chain: ERDLNTAARIGQSLVKQNSVLMEENNKLETMLGSAREEILHLRKQVNLRDDLLQLYSDSDDDDDEEDEEDEEEGEEEEREGQRDQDQQHDHPYGAPKPHPKAETA
B2: HAP1 amino acids 473–582, Gal4 activation domain prey (domain or fragment, UniProt O35668 473-582)
chain: DLKPPEDFEAPEELVPEEELGAIEEVGTAEDGQAEENEQASEETEAWEEVEPEVDETTRMNVVVSALEASGLGPSHLDMKYVLQQLSNWQDAHSKRQQKQKVVPKDSPTP
B3: MYC-tagged HAP1-B_(155–582) (pCMV-MYC-HAP1), expressed in 293 cells (domain or fragment, UniProt O35668 155-582)
chain: EKERDLNTAARIGQSLVKQNSVLMEENNKLETMLGSAREEILHLRKQVNLRDDLLQLYSDSDDDDDEEDEEDEEEGEEEEREGQRDQDQQHDHPYGAPKPHPKAETAHRCPQLETLQQKLRLLEEENDHLREEASHLDNLEDEEQMLILECVEQFSEASQQMAELSEVLVLRLEGYERQQKEITQLQAEITKLQQRCQSYGAQTEKLQQMLASEKGIHSESLRAGSYMQDYGSRPRDRQEDGKSHRQRSSMPAGSVTHYGYSVPLDALPSFPETLAEELRTSLRKFITDPAYFMERRDTHCREGRKKEQRAMPPPPAQDLKPPEDFEAPEELVPEEELGAIEEVGTAEDGQAEENEQASEETEAWEEVEPEVDETTRMNVVVSALEASGLGPSHLDMKYVLQQLSNWQDAHSKRQQKQKVVPKDSPTP
B4: MYC-tagged HAP1-B_(155–582) (pCMV-MYC-HAP1-B_(155–582)), expressed in COS-7 cells (domain or fragment, UniProt O35668 155-582)
chain: EKERDLNTAARIGQSLVKQNSVLMEENNKLETMLGSAREEILHLRKQVNLRDDLLQLYSDSDDDDDEEDEEDEEEGEEEEREGQRDQDQQHDHPYGAPKPHPKAETAHRCPQLETLQQKLRLLEEENDHLREEASHLDNLEDEEQMLILECVEQFSEASQQMAELSEVLVLRLEGYERQQKEITQLQAEITKLQQRCQSYGAQTEKLQQMLASEKGIHSESLRAGSYMQDYGSRPRDRQEDGKSHRQRSSMPAGSVTHYGYSVPLDALPSFPETLAEELRTSLRKFITDPAYFMERRDTHCREGRKKEQRAMPPPPAQDLKPPEDFEAPEELVPEEELGAIEEVGTAEDGQAEENEQASEETEAWEEVEPEVDETTRMNVVVSALEASGLGPSHLDMKYVLQQLSNWQDAHSKRQQKQKVVPKDSPTP
B5: HAP1-B_(155–582) (random-primed mouse HAP1 clone), Gal4 activation domain prey (domain or fragment, UniProt O35668 155-582)
chain: EKERDLNTAARIGQSLVKQNSVLMEENNKLETMLGSAREEILHLRKQVNLRDDLLQLYSDSDDDDDEEDEEDEEEGEEEEREGQRDQDQQHDHPYGAPKPHPKAETAHRCPQLETLQQKLRLLEEENDHLREEASHLDNLEDEEQMLILECVEQFSEASQQMAELSEVLVLRLEGYERQQKEITQLQAEITKLQQRCQSYGAQTEKLQQMLASEKGIHSESLRAGSYMQDYGSRPRDRQEDGKSHRQRSSMPAGSVTHYGYSVPLDALPSFPETLAEELRTSLRKFITDPAYFMERRDTHCREGRKKEQRAMPPPPAQDLKPPEDFEAPEELVPEEELGAIEEVGTAEDGQAEENEQASEETEAWEEVEPEVDETTRMNVVVSALEASGLGPSHLDMKYVLQQLSNWQDAHSKRQQKQKVVPKDSPTP
B6: HAP1_(238–479), Gal4 activation domain prey (domain or fragment, UniProt O35668 238-479)
chain: QRDQDQQHDHPYGAPKPHPKAETAHRCPQLETLQQKLRLLEEENDHLREEASHLDNLEDEEQMLILECVEQFSEASQQMAELSEVLVLRLEGYERQQKEITQLQAEITKLQQRCQSYGAQTEKLQQMLASEKGIHSESLRAGSYMQDYGSRPRDRQEDGKSHRQRSSMPAGSVTHYGYSVPLDALPSFPETLAEELRTSLRKFITDPAYFMERRDTHCREGRKKEQRAMPPPPAQDLKPPED

Assays:
[1] = molecular target: T1, TBP-C (TBP_(CORE) clone, amino acids 134-316), Gal4 DNA-binding domain bait (mouse); experiment: two-hybrid; HAP1 deletion series (pPC86) with pDBLeu-mTBP-N, pDBLeu-mTBP-C or empty pDBLeu in MaV203; three clones of each; SC-L-W-H + 75 mM 3AT and SC-L-W-H-U (legend of Fig. 4: SC-L-W-H + 50 mM 3-AT)
[2] = molecular target: T2, TBP-N (TBP N terminus clone, amino acids 1-136), Gal4 DNA-binding domain bait (mouse); experiment: as above
[3] = molecular target: T3, HA-tagged full-length mouse TBP (pCMV-HA-TBP-FL) (mouse); experiment: co-IP; 293 cells co-transfected with pCMV-HA-TBP-FL and pCMV-MYC-HAP1; lysate precipitated with anti-TBP NC rabbit polyclonal antibody or a non-specific antibody, washes with 300 mM NaCl, 2% TX-100; blot with anti-MYC
[4] = molecular target: T4, FLAG-tagged GFP-TBP fusion protein (pFLAG-CMV-GFP-TBP-FL) (mouse); experiment: co-IP; COS-7 cells co-transfected with pFLAG-CMV-GFP-TBP-FL or pFLAG-CMV-GFP and pCMV-MYC-HAP1-B(155–582); lysate precipitated with anti-FLAG M2 or a non-specific antibody, washes with 300 mM NaCl, 2% TX-100; blot with anti-MYC
[5] = molecular target: T1, TBP-C (TBP_(CORE) clone, amino acids 134-316), Gal4 DNA-binding domain bait (mouse); experiment: two-hybrid; two-component tests: TBP baits (pDBLeu) with the HAP1 random-primed or oligo(dT)-primed prey clone (pPC86) co-transformed into MaV203; streaked on SC-L-W, SC-L-W-H + 75 mM 3-AT and SC-L-W-H-U
[6] = molecular target: T5, TBP-FL (full-length mouse TATA-binding protein), Gal4 DNA-binding domain bait (mouse); experiment: as above
[7] = molecular target: T2, TBP-N (TBP N terminus clone, amino acids 1-136), Gal4 DNA-binding domain bait (mouse); experiment: as above
[8] = molecular target: T5, TBP-FL (full-length mouse TATA-binding protein), Gal4 DNA-binding domain bait (mouse); experiment: two-hybrid; library screens: TBP-FL as Gal4 DBD bait (pDBLeu) against mouse placenta + pregnant uteri cDNA prey libraries in pPC86 (screen 1 oligo(dT)-primed, screen 2 random-primed); S. cerevisiae MaV203; SC-L-W-H-U, SC-L-W-H + 3-AT and LacZ

Binder	binding [1]	binding [2]	further results
B1	binds	no binding	
B2	binds	no binding	
B3			binding [3]: binds
B4			binding [4]: binds
B5			binding [5]: binds; binding [6]: binds; binding [7]: no binding; binding [8]: binds
B6	no binding	no binding	
